Values marked as one replicate rest on one cluster of the flow cell; about a third of the high ones do not repeat.
The sequences below were run on ATP (assay: switch fluorescence ratio, 500 uM ATP over buffer (Cy3 cluster intensity, sum of 5 cycles each) (fold (ratio)); higher = stronger signal-on switching upon ATP binding; sequences stand for … in TCGTCGGCAGCGTCAGATGTGTATAAGAGACAGTTTTTTTTTTTTTTTTTTTTTTTTT…TC). Details: aptamer strand: ATP DNA aptamer (quencher-CACCTGGGGGAGTATTGCGGAGGAAGG + anchor), 100 nM annealed; ATP concentration: 500 uM; one replicate.
In short: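 After annealing to 100 nM quencher-labelled ATP aptamer, Cy3-labelled switching-strand clusters on a modified Illumina MiSeq flow-cell were imaged in selection buffer. A second image followed after 15 min with 500 uM ATP at 22 °C, and five such buffer/ATP cycles were done, each separated by NaOH stripping and re-annealing. The fluorescence ratio, averaged per switch-domain sequence, is summed target-cycle over summed buffer-cycle Cy3 intensity per cluster, with clusters outside 100-1000 RFU excluded.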
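Also: ATP exposure 15 min at 22 °C before imaging.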

Sequence | switch fluorescence ratio
ACGCTGTAGT | 1.02
ACGCTTCCAC | 1.49
ACGCTTGATT | 1.22
ACGGACAGCA | 1.19
ACGGACCGTC | 0.954
ACGGACGCCG | 0.999
ACGGAGTT | 0.991
ACGGATGAAT | 1.08
ACGGATGGTG | 1
ACGGCAAATT | 1.08
ACGGCCACTA | 1.26
ACGGCCGGAG | 1.05
ACGGCCGGG | 1.01
ACGGCCTAAG | 1.02
ACGGCCTTCG | 1.13
ACGGCGATGT | 1.04
ACGGCGCAAT | 2.31
ACGGCGGCGT | 1.13
ACGGCTGCTA | 1.08
ACGGCTTAAT | 1.05
ACGGGAAAGC | 1.03
ACGGGACTGC | 1.38
ACGGGCAGAC | 1.98
ACGGGCCGCG | 0.992
ACGGGCCGTA | 0.921

Sequence | switch fluorescence ratio
ACGGGCGGGT | 1.14
ACGGGCTGT | 0.995
ACGGGGGCAC | 0.983
ACGGGGGCCC | 0.989
ACGGGGTGAC | 1.01
ACGGGGTTAT | 0.983
ACGGGTCTGT | 0.997
ACGGGTGTGG | 1.05
ACGGTAGCGG | 1.01
ACGGTATCGG | 1.01
ACGGTATGTC | 1.12
ACGGTCTCGT | 0.999
ACGGTGACTT | 1.05
ACGGTGCGCG | 1.01
ACGGTTCGCG | 0.989
ACGGTTTTGA | 1
ACGTAATCAA | 1.15
ACGTAATCGG | 1.02
ACGTAATGTG | 1.13
ACGTACATCG | 1.43
ACGTAGACCT | 1.25
ACGTATATCT | 1.16
ACGTATCACG | 0.997
ACGTATCCG | 1.05
ACGTCAATCA | 1.27

Sequence | switch fluorescence ratio
ACGTCACGCT | 1.39
ACGTCAGGGG | 1.27
ACGTCATTAC | 4.19
ACGTCGCCT | 0.992
ACGTCTCAGA | 1.03
ACGTCTGCAC | 1.48
ACGTGACGTC | 1.02
ACGTGATCTC | 1.21
ACGTGCGACA | 1.13
ACGTGCGGCC | 1.03
ACGTGTGGCC | 1.04
ACGTGTGTCA | 0.994
ACGTGTGTTG | 0.965
ACGTTAGATT | 1.09
ACGTTGATAG | 1.01
ACGTTGCACT | 1.1
ACGTTGCTTC | 1.02
ACGTTTAAGG | 1.01
ACGTTTCTGG | 1.03
ACGTTTG | 0.998
ACTAAACAGA | 1.06
ACTAAAGTTT | 1.02
ACTAAATGGG | 0.985
ACTAACGTAG | 1.1
ACTAACTCAG | 1.11

Sequence | switch fluorescence ratio
ACTAAGACGT | 1.04
ACTAAGGACA | 1.06
ACTACACTAA | 1.29
ACTACATATA | 1.05
ACTACATCGA | 1.03
ACTACCAGTA | 1.02
ACTACCGCTA | 2.02
ACTACTAGTC | 1.05
ACTACTAGTT | 1.11
ACTAGATCGT | 1.04
ACTAGATGGC | 1.03
ACTAGCAACA | 1.14
ACTAGCAGC | 1.1
ACTAGCATTT | 1.02
ACTAGCCTCT | 1.09
ACTAGGCTAG | 0.953
ACTAGGTCG | 1.04
ACTAGTATCC | 0.958
ACTATAGGAT | 1.02
ACTATCAATG | 1.01
ACTATGAGTG | 1.05
ACTATGGCTC | 0.978
ACTATGGCTT | 1.03
ACTATTGACT | 1.06
ACTATTTACC | 1.13

— the supplement of paper PMC10126150
